Results reported in PMC5892938.
The other results are listed elsewhere or left out. At the low end of the ranking the order means little.

Biological target: GST-SBP-SLBP (stem-loop binding protein) (UniProt Q14493)
Experiment: targeted RNA Bind-n-Seq;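 further: DESeq read counts versus GST-SBP nonspecific binding control pulldown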
Settings: RBNS binding buffer: 25 mM Tris pH 7.5, 150 mM KCl, 3 mM MgCl2, 0.1% Tween, 0.5 mg/mL BSA, 1 mM DTT; 27 nM protein, 750 pM RNA pool; temperature not stated; high values mean tight binding

| Sequence | binding signal (log2 fold change) |
| --- | --- |
| GGUCACGUCUCAAUCAACUCUUCCUCAGGAGUUUCCUCCUGUUAUUUCAACAGCUCGCAGUCAAG | 0.137 |
| GGUCACGUCUCAAUCAACUCUUCGCCCAGGGAAAGCCCUGGUUUUUUCAACAGCUCGCAGUCAAG | -0.372 |
| GGUCACGUCUCAAUCAACUCUUUUUCCAGGGAAAUCCCUGGUAAUCUCAACAGCUCGCAGUCAAG | 0.0389 |
| GGUCACGUCUCAAUCAACUCUUCUUCCAGGGAAAUCCCUGGCAUACUCAACAGCUCGCAGUCAAG | 0.399 |
| GGUCACGUCUCAAUCAACUCUCCGGAGGGGGGGAAAACCCCUUUACCCUCAUUCUCAACAGCUCGCAGUCAAG | -0.16 |
| GGUCACGUCUCAAUCAACUCCCCAGAGGGGGGGAAAACCCCUUUGCCCUCAAAAUCAACAGCUCGCAGUCAAG | 0.119 |
| GGUCACGUCUCAAUCAACUCCCUAGAGGGGGGGAAAACCCCUUUGCCCUCGUAUUCAACAGCUCGCAGUCAAG | -0.0734 |
| GGUCACGUCUCAAUCAACUCUUUUUCCAGGGAAAUCCCUGGCUUAUUCAACAGCUCGCAGUCAAG | 0.031 |
| GGUCACGUCUCAAUCAACUCUAUCUCAGGAGUUUUCUCCUGUUAUCUCAACAGCUCGCAGUCAAG | 0.132 |
| GGUCACGUCUCAAUCAACUCUUUCCCAGGAGUUUUCUCCUGUUAUUUCAACAGCUCGCAGUCAAG | 0.0605 |
| GGUCACGUCUCAAUCAACUCAUCCCCCAGGGAAAACCCUGGCUAUUUCAACAGCUCGCAGUCAAG | 0.2 |
| GGUCACGUCUCAAUCAACUCAUCCUCAGGAGUUUGCUCCUGCAUAUUCAACAGCUCGCAGUCAAG | 0.313 |
| GGUCACGUCUCAAUCAACUCUUUUUCCAGGGAAAACCCUGGCAAUGUCAACAGCUCGCAGUCAAG | 0.0278 |
| GGUCACGUCUCAAUCAACUCAGUCUCAGGAGUUUCCUCCUGCAAUCUCAACAGCUCGCAGUCAAG | 0.0673 |
| GGUCACGUCUCAAUCAACUCAAUUUCCAGGGAAAGCCCUGGUAUUCUCAACAGCUCGCAGUCAAG | -0.0789 |
| GGUCACGUCUCAAUCAACUCUCAAGAGGGGGGGAAAACCCCUUUACCCUCCACCUCAACAGCUCGCAGUCAAG | 0.21 |
| GGUCACGUCUCAAUCAACUCAUCCUCAGGAGUUUACUCCUGUUUACUCAACAGCUCGCAGUCAAG | -0.0441 |
| GGUCACGUCUCAAUCAACUCUAUCCCCAGGGAAAGCCCUGGCUAACUCAACAGCUCGCAGUCAAG | -0.155 |
| GGUCACGUCUCAAUCAACUCAACGGAGGGGGGGAAAACCCCUUUACCCUCAUCUUCAACAGCUCGCAGUCAAG | -0.0741 |
| GGUCACGUCUCAAUCAACUCUAUUUCCAGGGAAAGCCCUGGUUUUCUCAACAGCUCGCAGUCAAG | -0.122 |
| GGUCACGUCUCAAUCAACUCCUCAGAGGGGGGGAAAACCCCUUUACCCUCCACUUCAACAGCUCGCAGUCAAG | -0.154 |
| GGUCACGUCUCAAUCAACUCACAAGAGGGGGGGAAAACCCCUUUGCCCUCAUAUUCAACAGCUCGCAGUCAAG | 0.259 |
| GGUCACGUCUCAAUCAACUCUUCUCCAGGAGUUUUCUCCUGUUUUCUCAACAGCUCGCAGUCAAG | 0.174 |
| GGUCACGUCUCAAUCAACUCAACUCCAGGAGUUUCCUCCUGCAAACUCAACAGCUCGCAGUCAAG | -0.00479 |
| GGUCACGUCUCAAUCAACUCUUUUCCCAGGGAAACCCCUGGUUAUGUCAACAGCUCGCAGUCAAG | 0.0043 |

| Sequence | binding signal (log2 fold change) |
| --- | --- |
| GGUCACGUCUCAAUCAACUCAGUCUCCAGGGAAAGCCCUGGCAUUUUCAACAGCUCGCAGUCAAG | -0.0389 |
| GGUCACGUCUCAAUCAACUCUUUCUCAGGAGUUUUCUCCUGCUUACUCAACAGCUCGCAGUCAAG | 0.0264 |
| GGUCACGUCUCAAUCAACUCUCUAGAGGGGGGGAAAACCCCUUUGCCCUCCACAUCAACAGCUCGCAGUCAAG | 0.07 |
| GGUCACGUCUCAAUCAACUCAUCUUCCAGGGAAAACCCUGGCUUUUUCAACAGCUCGCAGUCAAG | -0.0327 |
| GGUCACGUCUCAAUCAACUCUUCCUCAGGAGUUUUCUCCUGCUUUCUCAACAGCUCGCAGUCAAG | -0.0213 |
| GGUCACGUCUCAAUCAACUCUAUUUCCAGGGAAAGCCCUGGCAUUUUCAACAGCUCGCAGUCAAG | 0.0777 |
| GGUCACGUCUCAAUCAACUCUACUUCAGGAGUUUUCUCCUGCAAUGUCAACAGCUCGCAGUCAAG | 0.0913 |
| GGUCACGUCUCAAUCAACUCUUUCUCCAGGGAAAACCCUGGUUUACUCAACAGCUCGCAGUCAAG | 0.16 |
| GGUCACGUCUCAAUCAACUCAACUCCCAGGGAAAACCCUGGCAUUCUCAACAGCUCGCAGUCAAG | -0.308 |
| GGUCACGUCUCAAUCAACUCAAUGUCAGGAGUUUACUCCUGCUUUCUCAACAGCUCGCAGUCAAG | -0.0137 |
| GGUCACGUCUCAAUCAACUCUAUCGAGGGGGGGAAAACCCCUUUACCCUCAUCAUCAACAGCUCGCAGUCAAG | -0.0498 |
| GGUCACGUCUCAAUCAACUCUAUAGAGGGGGGGAAAACCCCUUUACCCUCACUUUCAACAGCUCGCAGUCAAG | -0.537 |
| GGUCACGUCUCAAUCAACUCUUCGCCCAGGGAAAUCCCUGGUAUUCUCAACAGCUCGCAGUCAAG | -0.202 |
| GGUCACGUCUCAAUCAACUCAUGUCCAGGAGUUUUCUCCUGCUUUUUCAACAGCUCGCAGUCAAG | -0.126 |
| GGUCACGUCUCAAUCAACUCCAUCGAGGGGGGGAAAACCCCUUUACCCUCAUAUUCAACAGCUCGCAGUCAAG | 0.0524 |
| GGUCACGUCUCAAUCAACUCAACUUCCAGGGAAAGCCCUGGCAUAUUCAACAGCUCGCAGUCAAG | -0.121 |
| GGUCACGUCUCAAUCAACUCUCCAGAGGGGGGGAAAACCCCUUUACCCUCAAUUUCAACAGCUCGCAGUCAAG | -0.452 |
| GGUCACGUCUCAAUCAACUCAUCAGAGGGGGGGAAAACCCCUUUACCCUCAUCCUCAACAGCUCGCAGUCAAG | 0.388 |
| GGUCACGUCUCAAUCAACUCUAACGAGGGGGGGAAAACCCCUUUGCCCUCACAUUCAACAGCUCGCAGUCAAG | -0.0727 |
| GGUCACGUCUCAAUCAACUCUCCGGAGGGGGGGAAAACCCCUUUACCCUCAAUAUCAACAGCUCGCAGUCAAG | -0.546 |
| GGUCACGUCUCAAUCAACUCUAUCUCAGGAGUUUCCUCCUGCUAAUUCAACAGCUCGCAGUCAAG | 0.238 |
| GGUCACGUCUCAAUCAACUCCCCAGAGGGGGGGAAAACCCCUUUGCCCUCCAAAUCAACAGCUCGCAGUCAAG | 0.00837 |
| GGUCACGUCUCAAUCAACUCUAUCUCCAGGGAAACCCCUGGUAAACUCAACAGCUCGCAGUCAAG | -0.0437 |
| GGUCACGUCUCAAUCAACUCUACUCCCAGGGAAAUCCCUGGCAAUCUCAACAGCUCGCAGUCAAG | -0.238 |
| GGUCACGUCUCAAUCAACUCACAAGAGGGGGGGAAAACCCCUUUACCCUCGUAAUCAACAGCUCGCAGUCAAG | -0.00206 |

| Sequence | binding signal (log2 fold change) |
| --- | --- |
| GGUCACGUCUCAAUCAACUCAAUCCCAGGAGUUUCCUCCUGCAUAGUCAACAGCUCGCAGUCAAG | 0.225 |
| GGUCACGUCUCAAUCAACUCAAUUCCAGGAGUUUACUCCUGCUAAUUCAACAGCUCGCAGUCAAG | 0.043 |
| GGUCACGUCUCAAUCAACUCAGUCUCCAGGGAAAACCCUGGCUUUCUCAACAGCUCGCAGUCAAG | -0.256 |
| GGUCACGUCUCAAUCAACUCACUAGAGGGGGGGAAAACCCCUUUACCCUCCAUUUCAACAGCUCGCAGUCAAG | -0.153 |
| GGUCACGUCUCAAUCAACUCAAUUCCCAGGGAAAACCCUGGUUAACUCAACAGCUCGCAGUCAAG | 0.0469 |
| GGUCACGUCUCAAUCAACUCUUCAGAGGGGGGGAAAACCCCUUUACCCUCCAAAUCAACAGCUCGCAGUCAAG | -0.358 |
| GGUCACGUCUCAAUCAACUCAUCUUCCAGGGAAACCCCUGGUUAACUCAACAGCUCGCAGUCAAG | 0.24 |
| GGUCACGUCUCAAUCAACUCAAAAGAGGGGGGGAAAACCCCUUUGCCCUCACCAUCAACAGCUCGCAGUCAAG | -0.0463 |
| GGUCACGUCUCAAUCAACUCAACUUCAGGAGUUUACUCCUGCUAUGUCAACAGCUCGCAGUCAAG | 0.0449 |
| GGUCACGUCUCAAUCAACUCCACAGAGGGGGGGAAAACCCCUUUACCCUCAACAUCAACAGCUCGCAGUCAAG | -0.181 |
| GGUCACGUCUCAAUCAACUCCUUAGAGGGGGGGAAAACCCCUUUGCCCUCAUUUUCAACAGCUCGCAGUCAAG | -0.0324 |
| GGUCACGUCUCAAUCAACUCUUCCUCAGGAGUUUUCUCCUGCAUUUUCAACAGCUCGCAGUCAAG | 0.102 |
| GGUCACGUCUCAAUCAACUCCCAGGAGGGGGGGAAAACCCCUUUACCCUCAGAAUCAACAGCUCGCAGUCAAG | -0.233 |
| GGUCACGUCUCAAUCAACUCUACUUCAGGAGUUUACUCCUGCAAAUUCAACAGCUCGCAGUCAAG | -0.0232 |
| GGUCACGUCUCAAUCAACUCGCACGAGGGGGGGAAAACCCCUUUACCCUCAUUAUCAACAGCUCGCAGUCAAG | 0.0988 |
| GGUCACGUCUCAAUCAACUCUUCCCCCAGGGAAAGCCCUGGUAAACUCAACAGCUCGCAGUCAAG | 0.0508 |
| GGUCACGUCUCAAUCAACUCUUCCUCCAGGGAAAUCCCUGGCAUACUCAACAGCUCGCAGUCAAG | 0.00978 |
| GGUCACGUCUCAAUCAACUCUAUUUCAGGAGUUUACUCCUGUUUUUUCAACAGCUCGCAGUCAAG | -0.0978 |
| GGUCACGUCUCAAUCAACUCUUCUUCAGGAGUUUCCUCCUGCUUAUUCAACAGCUCGCAGUCAAG | 0.0526 |
| GGUCACGUCUCAAUCAACUCAAUCUCCAGGGAAAGCCCUGGCAUUUUCAACAGCUCGCAGUCAAG | 0.0734 |
| GGUCACGUCUCAAUCAACUCUAACGAGGGGGGGAAAACCCCUUUACCCUCAAAAUCAACAGCUCGCAGUCAAG | -0.0317 |
| GGUCACGUCUCAAUCAACUCAAUCUCAGGAGUUUGCUCCUGCUUUUUCAACAGCUCGCAGUCAAG | 0.276 |
| GGUCACGUCUCAAUCAACUCAUACGAGGGGGGGAAAACCCCUUUACCCUCAACAUCAACAGCUCGCAGUCAAG | -0.658 |
